Reference: patent publication US11071788B2, “Antibody drug conjugates of kinesin spindel protein (KSP) inhibitors with antiB7H3-antibodies” (BAYER PHARMA AKTIENGESELLSCHAFT, priority 2015, dated 2021)

B1: TPP6501 (antibody)
heavy: EVQLLESGGGLVQPGGSLRLSCAASGFTFSSYGMHWVRQAPGKGLEWVSAISGSGGSTYYADSVKGRFTISRDNSKNTLYLQMNSLRAEDTAVYYCARGSNYLGMDVWGQGTLVTVSS[left out - human IgG1 constant region]
light: QSVLTQPPSASGTPGQRVTISCSGSSSNIGRNIVNWYQQLPGTAPKLLIYRSNQRPSGVPDRFSGSKSGTSASLAISGLRSEDEADYYCQTWGTGWVFGGGTKLTVLGQPKAAPSVTLFPPSSEELQANKATLVCLISDFYPGAVTVAWKADSSPVKAGVETTTPSKQSNNKYAASSYLSLTPEQWKSHRSYSCQVTHEGSTVEKTVAPTECS
modifications: TPP-6501 Heavy Chain (IgG); TPP-6501 Light Chain (IgG)
B2: 208-6501: ADC of Example 208 (Intermediate F104) with anti-B7H3 antibody 6501 (conjugate)
heavy: EVQLLESGGGLVQPGGSLRLSCAASGFTFSSYGMHWVRQAPGKGLEWVSAISGSGGSTYYADSVKGRFTISRDNSKNTLYLQMNSLRAEDTAVYYCARGSNYLGMDVWGQGTLVTVSS[left out - human IgG1 constant region]
light: QSVLTQPPSASGTPGQRVTISCSGSSSNIGRNIVNWYQQLPGTAPKLLIYRSNQRPSGVPDRFSGSKSGTSASLAISGLRSEDEADYYCQTWGTGWVFGGGTKLTVLGQPKAAPSVTLFPPSSEELQANKATLVCLISDFYPGAVTVAWKADSSPVKAGVETTTPSKQSNNKYAASSYLSLTPEQWKSHRSYSCQVTHEGSTVEKTVAPTECS

Columns and labels:
human B7H2 = target: T1, human B7H2 (Homo sapiens (Human), UniProt O75144); experiment: ELISA binding of anti-B7H3 antibodies to human B7H2
T1 sequence (O75144 whole entry, looked up): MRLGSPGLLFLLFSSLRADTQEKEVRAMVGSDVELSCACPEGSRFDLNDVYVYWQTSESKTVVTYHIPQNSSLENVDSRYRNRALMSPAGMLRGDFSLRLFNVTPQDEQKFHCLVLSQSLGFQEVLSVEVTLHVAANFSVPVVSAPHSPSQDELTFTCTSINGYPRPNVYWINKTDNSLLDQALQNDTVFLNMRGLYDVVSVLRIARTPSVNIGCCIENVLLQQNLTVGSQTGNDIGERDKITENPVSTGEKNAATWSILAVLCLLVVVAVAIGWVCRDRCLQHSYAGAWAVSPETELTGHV
Description: (§1) TPP6497, TPP6499, TPP6501, TPP6502 and TPP6515 were synthesized as described above. Binding of the antibodies to human B7H3 and to human B7H2 and B7H4 was characterized using ELISAs. Black 384-well Maxisorp plates (Nunc) were coated with anti-human IgG Fc (Sigma, 12316; 1:440 dilution) in single coating buffer (Candor) for one hour at 37° C. After washing once with PSB, 0.05% Tween, the plate was blocked with 100% Smart Block (Candor) for one hour at 37° C. The antibody to be tested was then attached to the plate (2 μg/ml IgG in PBS, 0.05% Tween, 10% Smart Block; 1 hour, room temperature). After washing three times, the plate was incubated with the antigen in question or with buffer alone (37 ng/ml in PBS, 0.05% Tween, 10% Smart block; B7H2: RnDSystems, 8206-B7; B7H3: RnDSystems, 2318-B3-050/CF; B7H4. RnDSystems, 6576-B7; 1 hour, room temperature). After washing three times, the plate was incubated with an anti-His HRP antibody (Novagen, 71840-3; 1:10000 dilution; 1 hour, room temperature). After washing three times, the plate was incubated with Amplex Red for 30 minutes and then read.

human B7H3 = target: T2, human B7H3 (Homo sapiens (Human), UniProt Q5ZPR3); experiment: ELISA binding of anti-B7H3 antibodies to human B7H3
T2 sequence (Q5ZPR3 whole entry, looked up): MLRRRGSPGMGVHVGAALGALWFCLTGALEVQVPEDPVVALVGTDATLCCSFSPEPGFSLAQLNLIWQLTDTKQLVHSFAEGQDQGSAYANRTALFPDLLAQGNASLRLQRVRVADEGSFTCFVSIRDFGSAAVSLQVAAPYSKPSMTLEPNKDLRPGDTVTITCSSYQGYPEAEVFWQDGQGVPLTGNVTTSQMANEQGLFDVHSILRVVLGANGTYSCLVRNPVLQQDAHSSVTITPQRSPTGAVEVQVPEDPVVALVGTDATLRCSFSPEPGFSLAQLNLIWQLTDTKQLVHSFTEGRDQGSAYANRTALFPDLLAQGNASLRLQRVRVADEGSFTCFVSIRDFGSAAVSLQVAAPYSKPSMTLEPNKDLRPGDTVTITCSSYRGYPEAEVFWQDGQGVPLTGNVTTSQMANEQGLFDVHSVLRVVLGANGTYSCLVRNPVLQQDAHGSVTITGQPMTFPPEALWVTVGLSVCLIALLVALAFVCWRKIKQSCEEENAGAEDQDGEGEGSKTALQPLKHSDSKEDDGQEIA
Description: as §1

human B7H4 = target: T3, human B7H4 (Homo sapiens (Human), UniProt Q7Z7D3); experiment: ELISA binding of anti-B7H3 antibodies to human B7H4
T3 sequence (Q7Z7D3 whole entry, looked up): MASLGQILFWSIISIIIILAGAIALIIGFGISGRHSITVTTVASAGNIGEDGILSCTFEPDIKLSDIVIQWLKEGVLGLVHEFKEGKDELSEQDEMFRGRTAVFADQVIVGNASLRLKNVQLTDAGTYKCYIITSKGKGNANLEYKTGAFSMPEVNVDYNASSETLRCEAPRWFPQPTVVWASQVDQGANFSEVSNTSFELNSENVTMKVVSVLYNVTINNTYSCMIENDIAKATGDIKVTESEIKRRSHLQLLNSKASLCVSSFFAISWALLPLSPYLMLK
Description: as §1

[1] = test system: Raji: human Burkitt's lymphoma cells, B7H3-negative; experiment: CTG cytotoxicity assay of anti-B7H3 ADCs, Raji; format: cell-based; conditions: 72 h incubation
Description: The analysis of the cytotoxic effects of the anti-B7H3 ADCs was carried out with various cell lines:
Raji: human Burkitt's lymphoma cells, DMSZ-ACC-319, standard medium: RPMI 1640; (Biochrom; # FG 1215, with stable glutamine)+10% FCS (Biochrom; # S0415), B7H3-negative.
The cells were cultivated by the standard method as stated by the American Tissue Culture Collection (ATCC) for the cell lines in question.
The cells were cultivated according to the standard method using the growth media listed under C-1. […] In a parallel plate, the cell vitality was determined at the start of the drug treatment (day 0) using the Cell Titer Glow (CTG) Luminescent Cell Viability Assay (Promega #G7573 and #G7571). To this end, 100 μl of the […] were added per cell batch, the plates were then covered with aluminium foil, shaken on the plate shaker at 180 rpm for 2 minutes, allowed to stand on the laboratory bench for 8 minutes and then measured using a luminometer (Victor X2, Perkin Elmer). The substrate detects the ATP content in the living cells, generating a luminescence signal of which the height is directly proportional to the vitality of the cells. […] From the measured data, the IC^50 of the growth inhibition in comparison to day 0 was calculated using the DRC (dose response curve) analysis spreadsheet with a 4-parameter fit. […]

Row | Molecule | Binding to B7H2 (ELISA, in words) (human B7H2) | Binding to B7H3 (ELISA, in words) (human B7H3) | Binding to B7H4 (ELISA, in words) (human B7H4) | IC50 [1]
1 | B1 | not B7H2 or B7H4 | bind B7H3 | not B7H2 or B7H4 | 
2 | B2 |  |  |  | 0.126 µM
